Sequences and labels used below:
B1: CPEB3 Ribozyme (parent)
chain: UAACAGGGGGCCACAGCAGAAGCGUUCACGUCGCAGCCCCUGUCAGAUUCUGGUGAAUCUGCGAAUUCUGCUGUAUAUCUC

The source gives no read counts; variants with many changes may rest on few reads.

The record followed here is the RNAGym collection of RNA variant scans (doi:10.1093/nar/gkz1192).

Variants of B1 are the subject of this data set. Put plainly: self-cleavage, relative activity (ratio to wild type); higher = more cleavage; in vitro, sequencing. The method in brief:
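Barcoded CPEB3 ribozyme mutants, produced by rounds of error-prone PCR, self-cleaved while being transcribed with T7 RNA polymerase for 5 hours at 37°C and during a subsequent 15 min DNase I step before EDTA was added. Sequencing of template-switched cDNA on Illumina gave cleaved and total reads, and DNA sequencing assigned barcodes to variants. Each variant's relative activity is its cleaved/total read fraction divided by the unmutated ribozyme's fraction, averaged across three batches. A variant needed a minimum of 5 reads.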
For A3G A13G A47G A65U, the self-cleavage came to 0.39.

Take A3G A13G A15G U25C U26C G33A U80C: the self-cleavage amounted to 0.12.

With A3G A5G G6U A21U U51C U54A, the self-cleavage came out at 0.13.

A3G A5U U25C U26C U41A: the self-cleavage was 0.44.

For the variant A3G A18G U25C A77U U78C, the self-cleavage came out at 0.08.

Consider A3G A13U A18G U58C U69C U78C, for which the self-cleavage was found to be 1.06.

With A3G A13U C40U U41C U58C, the self-cleavage was 0.3.

In the case of A3G A15G C32U A56G A64U U74C, the self-cleavage is 0.12.

For the variant A3G A18U U67C, the self-cleavage amounted to 0.28.

On to A3G A15U U25A U58C G73A, for which the self-cleavage is 0.5.

With A3G A13G A20U A28G, the self-cleavage is 0.08.

For A3G A20G G24U U31A C32U A56G U67C, the self-cleavage came out at 0.14.

A3G A5G U31A U48A U58C: the self-cleavage was 0.2.

A3G A13G A35U U49C A57U: the self-cleavage was found to be 1.

Regarding A3G A13G A35G, the self-cleavage was found to be 0.91.

Regarding A3G A18C U69C, the self-cleavage was 0.25.

Take A3G A13G U31C C39A: the self-cleavage amounted to 0.38.

Turning to A3G A15C U60C A64G A65U U69A, the self-cleavage stood at 0.1.

Take A3G A13U A20G A65U U72A A77G: the self-cleavage was 0.16.

Take A3G A13G A18U U26C A56G U66C: the self-cleavage came to 0.

As for A3G A13G U26A A28G A65G, the self-cleavage amounted to 0.21.

A3G A15G C40U: the self-cleavage came to 0.65.

For the variant A3G A15C U25A, the self-cleavage came out at 0.57.

Consider A3G A15G A64G, for which the self-cleavage was 0.85.

On to A3G A5G U49C A56U A65G, for which the self-cleavage came to 0.15.

A3G A5U A21G: the self-cleavage worked out at 0.79.

For A3G A5U U25A U54A A57G U78A U80C, the self-cleavage was 0.14.

As for A3G A13G A15G C17A A64G C71G G73A, the self-cleavage is 0.06.

Regarding A3G A15U U26C U67C U72C U80C, the self-cleavage is 0.11.

A3G A13U U31C C32G U41C: the self-cleavage was determined as 0.18.

For the variant A3G A5U G9U C50U C71A U78C, the self-cleavage stood at 0.04.

Take A3G A18U A47G U60C: the self-cleavage is 0.24.

In the case of A3G A15U A77U U80A, the self-cleavage stood at 0.87.

Turning to A3G A5U C62U A65G, the self-cleavage came out at 0.3.

In the case of A3G A15G A65G U67C, the self-cleavage turned out to be 0.22.

On to A3G A13U U31A, for which the self-cleavage amounted to 0.53.

Turning to A3G A5G C12U A15G A20U, the self-cleavage turned out to be 0.2.

As to A3G A13U U51C, the self-cleavage came out at 1.19.

Regarding A3G A18G G24A, the self-cleavage turned out to be 0.39.

Take A3G A13G A15U U26A C34U: the self-cleavage came out at 0.34.

As to A3G A18U U60A, the self-cleavage worked out at 0.64.

In the case of A3G A5G C37U U54C A57G, the self-cleavage was 0.54.

On to A3G A15G A65G U72A, for which the self-cleavage amounted to 0.22.

A3G A18U U26C U54G A56G: the self-cleavage was found to be 0.11.

A3G A5U G8U U31C U51C U72C: the self-cleavage amounted to 0.11.

For A3G A20G C32U A45G U48C, the self-cleavage was 0.08.

Turning to A3G A5U U72C, the self-cleavage was 0.33.

Take A3G A13G C23U U72A: the self-cleavage is 0.13.

As to A3G A13U A64G, the self-cleavage was determined as 0.9.

Consider A3G A5U G24U G63A U72C A77G, for which the self-cleavage is 0.1.

As to A3G A18G U43C U80C, the self-cleavage was found to be 0.2.

On to A3G A13U A15G U48C, for which the self-cleavage amounted to 0.64.

Consider A3G A15G C29U U54A, for which the self-cleavage worked out at 0.24.

In the case of A3G A13C G19U C40A, the self-cleavage was found to be 0.13.

Turning to A3G A18G U25C A28G, the self-cleavage stood at 0.43.

In the case of A3G A20G A21G U60C, the self-cleavage worked out at 0.23.

Turning to A3G A20G C34U A64U U80C, the self-cleavage came to 0.2.

For the variant A3G A13U A65G U69C, the self-cleavage was 0.19.

On to A3G A13G C34G U72C U78C, for which the self-cleavage came to 0.15.

As for A3G A15G C38U U41C U43A, the self-cleavage came to 0.61.

Consider A3G A13G C23U C62A U69A U78C, for which the self-cleavage amounted to 0.13.

Take A3G A13U U26C A64G: the self-cleavage turned out to be 0.56.

For the variant A3G A15G A20G U26A A45U A64C, the self-cleavage was 0.08.

With A3G A15U C59A U78C, the self-cleavage is 0.2.

With A3G A5U G33A A56G U58G U78C, the self-cleavage was 0.1.

For A3G A5G A45U U49A, the self-cleavage came out at 0.64.

Turning to A3G A15U C62G, the self-cleavage turned out to be 0.14.

Consider A3G A18G A21G C32A, for which the self-cleavage came out at 0.6.

As for A3G A18G U31A, the self-cleavage stood at 0.61.

Consider A3G A20G A28G U51A, for which the self-cleavage came out at 0.75.

For A3G A20G C23U A28U U60A A65G G70U, the self-cleavage came to 0.12.

A3G A13G A18U C29A: the self-cleavage is 0.37.

As for A3G A15G U31C C40U A47G U51C A64U, the self-cleavage was found to be 0.09.

With A3G A5U G9C U41C C79U, the self-cleavage is 0.13.

Take A3G A18G U43C U48C U58C: the self-cleavage amounted to 0.28.

Regarding A3G A5U G24C U80C, the self-cleavage came to 0.16.

On to A3G A15G U25C A28G A35U U60C U74A, for which the self-cleavage was determined as 0.58.

On to A3G A5U A18G U43G U78C, for which the self-cleavage is 0.07.

Consider A3G A13U A18C C39U C40U U60A C71U, for which the self-cleavage was determined as 0.02.

For A3G A18G A20U G30A A47G C62U, the self-cleavage worked out at 0.14.

For A3G A13U U43C U67C U80C, the self-cleavage came out at 0.17.

For A3G A13U G16C G24C G30U A47G, the self-cleavage worked out at 0.45.

For the variant A3G A18U A35G C39U U49C C68A, the self-cleavage came to 0.71.
